Experimental data from the supplement of paper PMC8285479.
Counter-ions that a name gives are not always drawn. ± gives the standard deviation of the averaged measurements. Whole data set: some 1,900 compounds, median “normalised cell viability (NPI; 0 = phenylarsine oxide control, 1 = DMSO control)” near 1, cut for the lowest 2% near 0.039. This is one part of the list.

System: NCI-H1944
Experiment: normalised cell viability (NPI; 0 = phenylarsine oxide control, 1 = DMSO control) (fraction of DMSO control); NCI-H1944 is a non-small cell lung cancer line; higher = more viable cells (less compound toxicity)
Conditions: 6 days
[1] = glucocorticoid arm: hydrocortisone 2.75 uM co-treatment, compound 1 µM
[2] = glucocorticoid arm: hydrocortisone 2.75 uM co-treatment, compound 5 µM
[3] = glucocorticoid arm: hydrocortisone 2.75 uM pre-treated 2 days and continued, compound 1 µM
[4] = glucocorticoid arm: hydrocortisone 2.75 uM pre-treated 2 days and continued, compound 5 µM
[5] = glucocorticoid arm: vehicle, compound 1 µM
[6] = glucocorticoid arm: vehicle, compound 5 µM
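Also: CTB read-out in 384-well plates, mean of triplicate wells, normalised per plate against 1 µM phenylarsine oxide and 0.1% DMSO, compounds added 24 h after seeding.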

Row | Compound | normalised cell viability [1] | normalised cell viability [2] | normalised cell viability [3] | normalised cell viability [4] | normalised cell viability [5] | normalised cell viability [6]
1 | CCNC(=O)[C@H]1O[C@@H](n2cnc3c(N)nc(NCCc4ccc(CCC(=O)O)cc4)nc32)[C@H](O)[C@@H]1O | 1 ± 0.015 | 0.984 ± 0.004 | 0.997 ± 0.0052 | 0.967 ± 0.011 | 0.989 ± 0.001 | 0.9883 ± 0.0072
2 | CNCCNS(=O)(=O)c1cccc2cnccc12 [H-8 dihydrochloride] | 0.9883 ± 0.0078 | 0.9753 ± 0.0091 | 0.9977 ± 0.004 | 1.04 ± 0.09 | 0.9783 ± 0.0059 | 0.993 ± 0.015
3 | C[C@](N)(Cc1ccc(O)cc1)C(=O)O [L-alpha-Methyl-p-tyrosine] | 1.003 ± 0.0058 | 1.03 ± 0.026 | 1.007 ± 0.0058 | 1.07 ± 0.081 | 0.989 ± 0.0044 | 0.998 ± 0.011
4 | CC(C)NCC(O)COc1cccc2ccccc12 (racemic) [(±)-Propranolol hydrochloride] | 1.017 ± 0.0058 | 1.02 ± 0.026 | 1.01 ± 0.011 | 1.08 ± 0.09 | 0.9967 ± 0.0049 | 1 ± 0.017
5 | c1ccc2c(c1)CCCC2C1=NCCN1 (stereo unspecified) [Tetrahydrozoline hydrochloride] | 1 ± 0.0095 | 0.9983 ± 0.0015 | 0.898 ± 0.18 | 0.996 ± 0.012 | 0.997 ± 0.001 | 1 ± 0.011
6 | c1ccc2c(c1)CCCC2C1=NCCN1 (stereo unspecified) [Tetrahydrozoline HCl] | 1.04 ± 0.015 | 1.06 ± 0.015 | 1.03 ± 0.023 | 1.07 ± 0.011 | 1.003 ± 0.0064 | 1.003 ± 0.0058
7 | CNc1ncnc2c1ncn2[C@@H]1O[C@H](CO)[C@@H](O)[C@H]1O [N6-Methyladenosine] | 1 | 0.998 ± 0.029 | 1.001 ± 0.009 | 0.949 ± 0.039 | 1.002 ± 0.0072 | 1 ± 0.015
8 | N[C@@H](CC(=O)O)C(=O)O [L-Aspartic acid] | 0.992 ± 0.007 | 1.006 ± 0.0063 | 0.996 ± 0.013 | 0.999 ± 0.03 | 0.993 ± 0.016 | 0.991 ± 0.0044
9 | CN=c1nc(-c2ccccc2)n(-c2ccccc2)s1 | 1.003 ± 0.0058 | 1.04 ± 0.031 | 0.832 ± 0.33 | 1.02 ± 0.01 | 1.01 | 1.017 ± 0.0058
10 | O=C(NOCC1CC1)c1ccc(F)c(F)c1Nc1ccc(I)cc1Cl | 0.7163 ± 0.0057 | 0.625 ± 0.027 | 0.841 ± 0.011 | 0.796 ± 0.02 | 0.844 ± 0.038 | 0.779 ± 0.051
11 | Nc1nc(F)nc2c1ncn2[C@@H]1O[C@H](COP(=O)(O)O)[C@@H](O)[C@@H]1O [Fludarabine; Fludarabine phosphate] | 1.02 ± 0.011 | 1.07 ± 0.023 | 1.027 ± 0.0058 | 1.03 ± 0.01 | 0.988 ± 0.004 | 0.739 ± 0.013
12 | COc1[nH]c2ccc(F)cc2c1C(=O)OCC1CCN(CCNS(C)(=O)=O)CC1.NS(=O)(=O)O | 1.023 ± 0.0058 | 0.955 ± 0.011 | 1.017 ± 0.0058 | 0.989 ± 0.021 | 0.9993 ± 0.0011 | 1.007 ± 0.0058
13 | CCCCN1CCC(n2c(=O)[nH]c3ccccc32)CC1 [NS 521 oxalate] | 1.02 ± 0.011 | 1.03 ± 0.046 | 1.03 ± 0.011 | 1.006 ± 0.0075 | 1.03 ± 0.01 | 1.03 ± 0.015
14 | CC1(C)CCC(c2ccc(Cl)cc2)=C(CN2CCN(c3ccc(C(=O)NS(=O)(=O)c4ccc(N[C@H](CCN5CCOCC5)CSc5ccccc5)c(S(=O)(=O)C(F)(F)F)c4)cc3)CC2)C1 [ABT-263 (Navitoclax)] | 0.991 ± 0.025 | 1.01 ± 0.022 | 0.998 ± 0.03 | 1.023 ± 0.0058 | 1.001 ± 0.0081 | 1.003 ± 0.0058
15 | COc1ccc(CC(C)NCC(O)c2ccc(O)c(NC=O)c2)cc1 (stereo unspecified) [Formoterol fumarate dihydrate] | 1.003 ± 0.0064 | 0.9893 ± 0.0064 | 1.006 ± 0.0075 | 0.962 ± 0.019 | 0.9977 ± 0.0025 | 0.9973 ± 0.0031
16 | COc1ccc(CC(C)NCC(O)c2ccc(O)c(NC=O)c2)cc1 (stereo unspecified) [Formoterol Hemifumarate] | 1.02 ± 0.021 | 0.959 ± 0.019 | 1.037 ± 0.0058 | 0.997 ± 0.025 | 1.013 ± 0.0058 | 1.01
17 | CC(C)C[C@H](NC(=O)[C@H](Cc1ccccc1)NC(=O)c1cnccn1)B(O)O [Bortezomib] | 0.281 ± 0.011 | 0.0356 ± 0.0084 | 0.669 ± 0.035 | 0.28 ± 0.054 | 0.00407 ± 0.00064 | 0.00157 ± 0.00063
18 | CC(C)C[C@H](NC(=O)[C@H](Cc1ccccc1)NC(=O)c1cnccn1)B(O)O [Bortezomib (Velcade)] | 0.352 ± 0.024 | 0.0578 ± 0.0037 | 0.677 ± 0.016 | 0.351 ± 0.042 | 0.00826 ± 0.0011 | 0.000986 ± 0.0007
19 | O=C(OCCN1CCOCC1)C1(c2ccccc2)CCCCC1 | 1.01 ± 0.011 | 1.03 ± 0.088 | 1.02 ± 0.015 | 0.891 ± 0.21 | 1.017 ± 0.0058 | 1.03 ± 0.011
20 | CS(=O)(=O)c1ccc(C(=O)Nc2ccc(Cl)c(-c3ccccn3)c2)c(Cl)c1 [Vismodegib (GDC-0449)] | 1.01 ± 0.026 | 1.013 ± 0.0058 | 1.02 ± 0.011 | 1.01 ± 0.017 | 1.01 ± 0.01 | 1.01 ± 0.01
21 | CS(=O)(=O)c1ccc(C(=O)Nc2ccc(Cl)c(-c3ccccn3)c2)c(Cl)c1 [Vismodegib] | 1.02 ± 0.015 | 1.01 ± 0.028 | 1.03 | 1.023 ± 0.0058 | 1.007 ± 0.0058 | 1.01 ± 0.01
22 | O=C1C(c2c(O)[nH]c3ccccc23)=Nc2ccccc21 [Indirubin] | 1.117 ± 0.0058 | 1.19 ± 0.015 | 1.1 ± 0.01 | 1.12 ± 0.036 | 1.037 ± 0.0058 | 1.05 ± 0.011
23 | CNc1nc(-c2ccc3c(N)n[nH]c3c2)cc(N2C[C@@H](C(=O)NC3CCCCC3)CC[C@H]2C)n1 | 0.835 ± 0.023 | 0.759 ± 0.029 | 0.8143 ± 0.0061 | 0.731 ± 0.049 | 0.916 ± 0.034 | 0.737 ± 0.03
24 | CN1CCN(S(=O)(=O)c2ccc(-c3cnc(N)c(C(=O)Nc4cccnc4)n3)cc2)CC1 | 1.113 ± 0.011 | 1.2 ± 0.015 | 1.1 ± 0.011 | 1.1 ± 0.021 | 0.743 ± 0.0076 | 0.959 ± 0.021
25 | O=C(O)C1CCCNC1 (racemic) [(±)-Nipecotic acid] | 0.9947 ± 0.005 | 1.01 ± 0.014 | 1.02 ± 0.059 | 1.02 ± 0.021 | 1 ± 0.01 | 1.013 ± 0.0058
26 | O=C(Nc1cc(C(F)(F)F)cc(C(F)(F)F)c1)c1cc(Cl)ccc1O | 1.02 ± 0.041 | 1.07 ± 0.025 | 1.01 ± 0.011 | 1.04 ± 0.015 | 1.004 ± 0.0098 | 1.02 ± 0.015
